Measurements as given in publication PMC11347130.
No constants are given. Whether binding was seen depends on the method and setting. In cells and extracts the contact can be indirect. Some results given as binding are weak or reduced against the parent protein; the word gives no strength.

Amino acid sequences for entries named in this document (tags omitted). A change or cut given only in a name is not applied to a line headed by its entry. Residues count along the entry.
UniProt Q99700: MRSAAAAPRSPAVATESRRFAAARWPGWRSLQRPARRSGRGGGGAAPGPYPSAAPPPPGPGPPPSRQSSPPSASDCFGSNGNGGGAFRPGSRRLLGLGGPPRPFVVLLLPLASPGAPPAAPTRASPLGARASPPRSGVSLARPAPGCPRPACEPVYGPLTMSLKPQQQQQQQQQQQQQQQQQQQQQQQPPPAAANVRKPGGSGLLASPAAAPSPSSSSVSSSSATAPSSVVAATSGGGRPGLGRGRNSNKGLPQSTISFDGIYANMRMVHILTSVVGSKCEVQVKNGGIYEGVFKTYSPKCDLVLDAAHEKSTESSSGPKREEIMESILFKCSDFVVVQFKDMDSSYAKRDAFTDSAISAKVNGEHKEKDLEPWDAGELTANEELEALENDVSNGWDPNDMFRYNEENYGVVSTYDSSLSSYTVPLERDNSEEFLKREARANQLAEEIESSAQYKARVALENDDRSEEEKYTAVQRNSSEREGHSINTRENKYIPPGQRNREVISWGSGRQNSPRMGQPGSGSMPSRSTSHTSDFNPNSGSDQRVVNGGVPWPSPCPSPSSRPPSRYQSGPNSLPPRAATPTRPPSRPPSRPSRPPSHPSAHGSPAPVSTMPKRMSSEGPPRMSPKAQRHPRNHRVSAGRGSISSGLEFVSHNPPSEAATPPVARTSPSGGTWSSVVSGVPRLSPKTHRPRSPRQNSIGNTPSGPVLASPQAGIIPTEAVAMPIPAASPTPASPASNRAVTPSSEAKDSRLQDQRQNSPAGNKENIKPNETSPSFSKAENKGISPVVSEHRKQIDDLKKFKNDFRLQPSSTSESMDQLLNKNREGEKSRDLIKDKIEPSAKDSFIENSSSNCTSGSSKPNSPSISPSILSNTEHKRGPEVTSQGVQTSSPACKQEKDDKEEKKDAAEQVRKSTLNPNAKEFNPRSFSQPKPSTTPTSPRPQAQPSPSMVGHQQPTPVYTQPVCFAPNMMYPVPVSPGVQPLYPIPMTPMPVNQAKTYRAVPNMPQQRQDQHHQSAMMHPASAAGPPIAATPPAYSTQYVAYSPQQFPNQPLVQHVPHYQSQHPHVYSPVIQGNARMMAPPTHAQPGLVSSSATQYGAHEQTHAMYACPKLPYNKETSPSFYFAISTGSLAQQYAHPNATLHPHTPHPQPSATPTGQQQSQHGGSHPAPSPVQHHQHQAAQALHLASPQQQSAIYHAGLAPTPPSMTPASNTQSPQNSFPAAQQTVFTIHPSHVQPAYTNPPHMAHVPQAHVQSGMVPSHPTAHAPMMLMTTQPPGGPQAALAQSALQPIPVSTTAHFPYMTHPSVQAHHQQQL
5 × Flag-ataxin-2 (906–1313): residues 906-1313 of Q99700
5 × Flag-GST-ataxin-2 (906–1095): residues 906-1095 of Q99700
5 × Flag-GST-ataxin-2 (1096–1313): residues 1096-1313 of Q99700

Assays:
Assay in all cases: co-IP; lysate of HeLa cells co-transfected with 5×Myc-ataxin-2 and a 5×Flag-tagged bait, precipitated with anti-Flag-agarose 1 h at 4°C; buffer A: 50 mM Tris-HCl pH 7.5, 50 mM NaCl, 0.1% NP-40, 1 mM DTT, 1 mM EDTA, 10 ug/ml RNase A; western blot with anti-Myc
[1] = target: ataxin-2 (5 × Flag-ataxin-2 and 5 × Myc-ataxin-2) (human) (UniProt Q99700)
[2] = target: 5 × Flag-GST-ataxin-2 (906–1095) (human) (UniProt Q99700)
[3] = target: 5 × Flag-GST-ataxin-2 (906–1313) (human) (UniProt Q99700)
[4] = target: 5 × Flag-GST-ataxin-2 (1096–1313) (human) (UniProt Q99700)
[5] = target: 5 × Flag-ataxin-2 (906–1313) (human) (UniProt Q99700)

## ataxin-2 (5 × Flag-ataxin-2 and 5 × Myc-ataxin-2) (from UniProt Q99700 1-1313)
[1]
  binding: binds
[2]
  binding: no binding
[3]
  binding: binds
[4]
  binding: binds
[5]
  binding: binds
